The target in one assay is BD-MMP-9 (human) (UniProt P14780). In words: two-hybrid.
The target of assay [1] is HA-NS1 (DENV non-structural protein 1) (dengue virus 2 (DENV2)) (UniProt P14340). In words: co-IP.
Assay [2] deals with Flag-MMP-9 D7 (106–233) (human) (UniProt P14780). In words: co-IP.
The target in assay [3] is Flag-MMP-9 D8 (106–397) (human) (UniProt P14780). In words: co-IP.
Assay [4] has as its target endogenous β-catenin (human (endogenous in HEK293T and HeLa)) (UniProt P35222). In words: co-IP.
In the next assay the target is Flag-β-catenin (UniProt P35222). In words: co-IP.
Assay [5] addresses Flag-MMP-9 D9 (223–440) (human) (UniProt P14780). In words: co-IP.
The target in assay [6] is Flag-ZO-1 (Zona occludens protein-1) (UniProt Q07157). In words: co-IP.
Assay [7] has as its target Flag-MMP-9 D3 (512–707) (human) (UniProt P14780). In words: co-IP.
Assay [8] deals with Flag-MMP-9 D1 (106–707) (human) (UniProt P14780). In words: co-IP.
Assay [9] concerns the target Flag-MMP-9 D4 (106–511) (human) (UniProt P14780). In words: co-IP.
For assay [10], the target named is Flag-MMP-9 D6 (106–440) (human) (UniProt P14780). In words: co-IP.
For assay [11], the target named is Flag-MMP-9 D2 (440–707) (human) (UniProt P14780). In words: co-IP.
Assay [12] concerns the target Flag-MMP-9 D5 (1–511) (human) (UniProt P14780). In words: co-IP.

Amino acid sequences for entries named in this document (tags omitted). A change or cut given only in a name is not applied to a line headed by its entry. Residues count along the entry.
UniProt P14780: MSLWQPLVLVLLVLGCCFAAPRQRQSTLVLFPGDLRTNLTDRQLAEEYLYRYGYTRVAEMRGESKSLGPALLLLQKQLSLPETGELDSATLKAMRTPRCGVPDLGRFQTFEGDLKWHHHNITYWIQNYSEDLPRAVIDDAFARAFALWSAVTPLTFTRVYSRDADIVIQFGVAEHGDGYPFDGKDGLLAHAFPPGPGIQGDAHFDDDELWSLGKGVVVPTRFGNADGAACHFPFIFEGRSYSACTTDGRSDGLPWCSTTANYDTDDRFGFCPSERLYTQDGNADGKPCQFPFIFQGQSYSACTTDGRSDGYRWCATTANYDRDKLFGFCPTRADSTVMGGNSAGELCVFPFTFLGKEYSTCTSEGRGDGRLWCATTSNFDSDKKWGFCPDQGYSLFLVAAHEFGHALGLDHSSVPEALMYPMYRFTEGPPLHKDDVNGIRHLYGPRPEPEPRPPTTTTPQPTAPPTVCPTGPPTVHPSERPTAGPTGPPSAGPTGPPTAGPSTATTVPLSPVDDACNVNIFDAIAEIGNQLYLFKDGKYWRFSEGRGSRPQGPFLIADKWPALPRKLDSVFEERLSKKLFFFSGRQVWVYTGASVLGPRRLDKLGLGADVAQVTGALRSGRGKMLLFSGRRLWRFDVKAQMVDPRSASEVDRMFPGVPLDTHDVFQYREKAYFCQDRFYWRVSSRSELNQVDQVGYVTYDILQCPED
Flag-MMP-9 D5 (1–511): residues 20-511 of P14780
Flag-MMP-9 D1 (106–707): residues 106-707 of P14780
Flag-MMP-9 D4 (106–511): residues 106-511 of P14780
Flag-MMP-9 D6 (106–440): residues 106-440 of P14780
Flag-MMP-9 D8 (106–397): residues 106-397 of P14780
Flag-MMP-9 D7 (106–233): residues 106-233 of P14780
Flag-MMP-9 D9 (223–440): residues 223-440 of P14780
Flag-MMP-9 D2 (440–707): residues 440-707 of P14780
Flag-MMP-9 D3 (512–707): residues 512-707 of P14780
UniProt Q07157: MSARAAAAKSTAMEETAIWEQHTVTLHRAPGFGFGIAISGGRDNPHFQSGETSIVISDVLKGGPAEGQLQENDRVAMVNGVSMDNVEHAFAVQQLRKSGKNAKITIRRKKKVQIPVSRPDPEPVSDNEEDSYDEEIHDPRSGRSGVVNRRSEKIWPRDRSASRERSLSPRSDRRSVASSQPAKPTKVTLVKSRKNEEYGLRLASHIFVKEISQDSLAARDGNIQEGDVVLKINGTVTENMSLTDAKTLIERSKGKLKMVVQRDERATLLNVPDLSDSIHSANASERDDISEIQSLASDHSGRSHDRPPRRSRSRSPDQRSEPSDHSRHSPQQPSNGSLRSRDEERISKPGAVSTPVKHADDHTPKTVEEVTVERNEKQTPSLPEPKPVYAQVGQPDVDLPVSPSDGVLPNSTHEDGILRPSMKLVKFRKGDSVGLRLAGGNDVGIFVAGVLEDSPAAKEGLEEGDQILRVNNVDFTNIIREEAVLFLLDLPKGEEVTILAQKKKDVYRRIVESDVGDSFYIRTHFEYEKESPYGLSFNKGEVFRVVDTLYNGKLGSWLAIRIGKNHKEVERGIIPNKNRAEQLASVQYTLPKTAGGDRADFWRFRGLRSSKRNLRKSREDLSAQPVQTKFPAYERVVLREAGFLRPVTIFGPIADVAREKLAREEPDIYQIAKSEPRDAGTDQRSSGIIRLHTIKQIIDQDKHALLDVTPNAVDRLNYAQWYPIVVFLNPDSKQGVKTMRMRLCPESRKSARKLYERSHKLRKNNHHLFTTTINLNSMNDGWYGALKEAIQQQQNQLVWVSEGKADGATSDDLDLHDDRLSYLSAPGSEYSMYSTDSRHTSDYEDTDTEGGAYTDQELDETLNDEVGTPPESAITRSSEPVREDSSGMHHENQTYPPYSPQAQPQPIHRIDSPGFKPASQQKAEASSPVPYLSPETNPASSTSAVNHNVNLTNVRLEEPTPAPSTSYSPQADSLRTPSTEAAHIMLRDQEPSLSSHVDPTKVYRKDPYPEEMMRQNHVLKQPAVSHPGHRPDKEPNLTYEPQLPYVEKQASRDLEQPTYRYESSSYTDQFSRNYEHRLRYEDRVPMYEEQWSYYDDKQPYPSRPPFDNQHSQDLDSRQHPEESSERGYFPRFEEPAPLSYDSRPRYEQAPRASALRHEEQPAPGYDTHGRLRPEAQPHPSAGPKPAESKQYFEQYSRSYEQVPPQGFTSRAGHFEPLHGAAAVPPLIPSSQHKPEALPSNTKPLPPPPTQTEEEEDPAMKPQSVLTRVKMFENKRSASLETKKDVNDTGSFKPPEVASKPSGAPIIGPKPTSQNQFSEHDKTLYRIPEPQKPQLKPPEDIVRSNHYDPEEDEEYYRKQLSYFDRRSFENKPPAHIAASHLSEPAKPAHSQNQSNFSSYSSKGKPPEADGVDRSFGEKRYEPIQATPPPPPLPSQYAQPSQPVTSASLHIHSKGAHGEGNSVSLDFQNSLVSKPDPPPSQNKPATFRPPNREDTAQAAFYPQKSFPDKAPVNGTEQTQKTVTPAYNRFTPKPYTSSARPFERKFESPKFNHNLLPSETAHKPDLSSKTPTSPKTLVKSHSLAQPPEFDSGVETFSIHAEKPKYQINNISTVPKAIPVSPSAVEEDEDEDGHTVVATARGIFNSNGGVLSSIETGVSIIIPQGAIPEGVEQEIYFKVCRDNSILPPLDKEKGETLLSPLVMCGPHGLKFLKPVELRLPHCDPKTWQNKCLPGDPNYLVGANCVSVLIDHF

Results are given in words; binding and its absence hold for the method and conditions named. For some assays here: In cells and extracts the contact can be indirect. Some entries that bind do so weakly or less than the wild type.

From paper PMC8341711 come the findings set out here.

In the case of AD-NS1 (from UniProt P14340 776-1127), the binding result in the assay with BD-MMP-9 (human) is reported as “binds”.

For AD-NS4A (from UniProt P14340 2094-2220), the binding entry with BD-MMP-9 (human) is “no binding”.

On to “Flag-ZO-1 (Zona occludens protein-1) (from UniProt Q07157 1-1748)”, for which, in assay [1], the binding entry is “binds”.

On to “Flag-β-catenin (from UniProt P35222 1-781)”, for which the binding result in assay [1] is recorded as “binds”.

With “HA-NS1 (DENV non-structural protein 1) (from UniProt P14340 776-1127)”, the binding entry (in [2]; in [3]; in assay [4]; in the assay with Flag-β-catenin; in assay [5]; in [6]) was “binds” each time. Moreover, the binding result in [7] was “no binding”; in assay [8], “binds”; in [9], “binds”; in assay [10], “binds”; in [11] it was “no binding”; in assay [12], “binds”.

On to “endogenous β-catenin (from UniProt P35222 1-781)”, for which the binding result in assay [1] was “binds”.
